# Reference: PubChem BioAssay (Tox21)
# Several values for one entry are separate records, joined by “and”; a condition that tells them apart may be missing. Equal values may be shown once. The shares of active, inactive and inconclusive entries below differ from those in the screen. For some of these results: Potencies beside an inconclusive call are fits to weak or partial responses and may not hold up. Where a structure was tested more than once in an assay, its records may differ in their call. Activity calls are given as the source filed them. Unless noted, calls follow the shape of the dose curve; as a rule, active = well fitted curve in the direction sought with a large enough effect in the repeat runs; inconclusive = weak or mixed curves; inactive = no such curve, though single readings can be large; an effect the other way counts as inactive or inconclusive.
# How the values were obtained:
# [1] = qHTS assay for identifying genotoxic compounds that show differential cytotoxicity against isogenic chicken DT40 cell lines with known DNA damage response pathways - Rad54/Ku70 mutant cell line (AID 743015); conditions: DT40 Rad54/Ku70 mutant viability, CellTiter-Glo, 40 h; activity change, negative = cytotoxicity: at 66.8 µM (top of the series); also: nearly all actives have a fitted effect of over 60% in size; also: potency is read from the fitted curve at half-maximal effect; as to activity change, negative = cytotoxicity: % is scaled to controls: 0 for no effect and ±100 for the full control effect
# [2] = qHTS assay to identify small molecule antagonists of the androgen receptor (AR) signaling pathway - cell viability counter screen (AID 743033; also: nearly all actives have a fitted effect of over 45% in size; also: potency is read from the fitted curve at half-maximal effect; as to activity change, negative = cytotoxicity: % is scaled to controls: 0 for no effect and ±100 for the full control effect); conditions: AR-bla HEK293 viability, CellTiter-Glo luminescence, 16 h; activity change, negative = cytotoxicity: at 58.5 µM (top of the series) unless noted
# [3] = qHTS assay to identify small molecule antagonists of the thyroid receptor (TR) signaling pathway (AID 743065); conditions: GH3.TRE-Luc, T3-stimulated luciferase inhibition, 23.5 h; series mostly up to 70.3 µM; also: nearly all actives have a fitted effect of over 55% in size; also: potency is read from the fitted curve at half-maximal effect
# Outline: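 GH3.TRE-Luc rat pituitary cells carrying two TR response elements driving luciferase were plated for 4 h, given compound plus 1 nM T3 (final), and incubated 23.5 h at 37 C. ONE-Glo luminescence measured reporter inhibition; CellTiter-Fluor fluorescence tracked cytotoxicity.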
# [4] = biological target: Estrogen receptor (Homo sapiens) (UniProt P03372); assay: qHTS assay to identify small molecule antagonists of the estrogen receptor alpha (ER-alpha) signaling pathway (AID 743069; active = well fitted curve in the direction sought with a large enough effect in the signal ratio in the repeat runs, not every such curve was filed as active; inconclusive = weak or mixed curves, or effect the other way; inactive = no such curve, though single readings can be large or run the other way; the % refers to the signal ratio; also: potency is read from the fitted curve at half-maximal effect); conditions: HEK293 ER-alpha-UAS-bla, beta-lactamase ratio, antagonist mode; activity, negative = inhibition: at 69.4 µM (top of the series) unless noted
# Chain of UniProt P03372 (P03372 whole entry, looked up): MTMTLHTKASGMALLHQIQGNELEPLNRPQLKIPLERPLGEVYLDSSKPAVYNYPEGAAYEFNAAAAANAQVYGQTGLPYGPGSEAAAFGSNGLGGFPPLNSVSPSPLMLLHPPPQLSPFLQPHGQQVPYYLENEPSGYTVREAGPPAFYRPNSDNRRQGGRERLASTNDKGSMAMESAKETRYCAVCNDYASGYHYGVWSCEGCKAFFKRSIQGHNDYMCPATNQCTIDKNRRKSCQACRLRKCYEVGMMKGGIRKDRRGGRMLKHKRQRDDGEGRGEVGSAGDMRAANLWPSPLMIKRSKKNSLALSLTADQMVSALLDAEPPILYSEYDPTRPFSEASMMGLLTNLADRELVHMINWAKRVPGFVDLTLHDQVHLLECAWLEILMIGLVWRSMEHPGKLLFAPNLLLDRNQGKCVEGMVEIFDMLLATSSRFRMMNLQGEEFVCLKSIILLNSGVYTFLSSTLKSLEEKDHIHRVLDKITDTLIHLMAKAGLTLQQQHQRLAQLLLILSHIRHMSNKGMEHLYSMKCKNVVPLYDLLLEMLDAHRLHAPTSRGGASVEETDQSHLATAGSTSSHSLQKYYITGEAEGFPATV
# Outline: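 HEK293 cells stably carrying an ER-alpha-UAS-bla beta-lactamase reporter were pre-cultured overnight in 2% charcoal-stripped FBS medium. Test compounds in DMSO were added together with 17beta-estradiol for 18 hr at 37C. Read-out was fluorescence after 2 hr with LiveBLAzer B/G FRET substrate at room temperature.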
# [5] = qHTS assay to identify small molecule antagonists of the estrogen receptor alpha (ER-alpha) signaling pathway - cell viability counter screen (AID 743074; calls by dose curve; also: % is scaled to controls: 0 for no effect and ±100 for the full control effect; nearly all actives have a fitted effect of over 45% in size); conditions: ERalpha-bla HEK293 viability, CellTiter-Glo luminescence, 18 h; series mostly up to 69.4 µM
# [6] = biological target: Estrogen receptor (Homo sapiens) (UniProt P03372); assay: qHTS assay to identify small molecule agonists of the estrogen receptor alpha (ER-alpha) signaling pathway (AID 743075; calls by dose curve; also: potency is read from the fitted curve at half-maximal effect); conditions: HEK293 ER-alpha-UAS-bla, beta-lactamase FRET ratio, 18 h; series mostly up to 70.1 µM
# [7] = biological target: Estrogen receptor (Homo sapiens) (UniProt P03372); assay: qHTS assay to identify small molecule agonists of the estrogen receptor alpha (ER-alpha) signaling pathway using the BG1 cell line (AID 743079); conditions: BG1Luc4E2 cells, ERE-luciferase agonist, 22 h; activation: at 70.3 µM (top of the series) unless noted; also: nearly all actives have a fitted effect of over 20% in size; also: potency is read from the fitted curve at half-maximal effect
# [8] = qHTS assay to identify small molecule antagonists of the thyroid receptor (TR) signaling pathway - cell viability counter screen (AID 743064); conditions: GH3.TRE-Luc viability, CellTiter-Fluor, 24 h; activity change, negative = cytotoxic: at 70.3 µM (top of the series) unless noted; also: potency is read from the fitted curve at half-maximal effect; nearly all actives have a fitted effect of over 50% in size
# Outline: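 GH3.TRE-Luc cells, 4 h pre-plating; cpd + T3 1 nM final; 37 °C 23.5 h; CellTiter-Fluor 30 min; fluorescence read.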
# [9] = biological target: Androgen receptor (Homo sapiens) (UniProt P10275); assay: qHTS assay to identify small molecule agonists of the androgen receptor (AR) signaling pathway (AID 743036; active = well fitted activation curve with a large enough effect in the signal ratio in the repeat runs, with a control signal flat, not every such curve was filed as active; inconclusive = weak or mixed curves, or effect the other way; inactive = no such curve, though single readings can be large or run the other way; the % refers to the signal ratio; also: % is scaled to controls: 0 for no effect and ±100 for the full control effect); conditions: HEK293 AR-UAS-bla GripTite, beta-lactamase FRET ratio, 16 h; activation: at 62.4 µM (top of the series) unless noted
# Chain of UniProt P10275 (P10275 whole entry, looked up): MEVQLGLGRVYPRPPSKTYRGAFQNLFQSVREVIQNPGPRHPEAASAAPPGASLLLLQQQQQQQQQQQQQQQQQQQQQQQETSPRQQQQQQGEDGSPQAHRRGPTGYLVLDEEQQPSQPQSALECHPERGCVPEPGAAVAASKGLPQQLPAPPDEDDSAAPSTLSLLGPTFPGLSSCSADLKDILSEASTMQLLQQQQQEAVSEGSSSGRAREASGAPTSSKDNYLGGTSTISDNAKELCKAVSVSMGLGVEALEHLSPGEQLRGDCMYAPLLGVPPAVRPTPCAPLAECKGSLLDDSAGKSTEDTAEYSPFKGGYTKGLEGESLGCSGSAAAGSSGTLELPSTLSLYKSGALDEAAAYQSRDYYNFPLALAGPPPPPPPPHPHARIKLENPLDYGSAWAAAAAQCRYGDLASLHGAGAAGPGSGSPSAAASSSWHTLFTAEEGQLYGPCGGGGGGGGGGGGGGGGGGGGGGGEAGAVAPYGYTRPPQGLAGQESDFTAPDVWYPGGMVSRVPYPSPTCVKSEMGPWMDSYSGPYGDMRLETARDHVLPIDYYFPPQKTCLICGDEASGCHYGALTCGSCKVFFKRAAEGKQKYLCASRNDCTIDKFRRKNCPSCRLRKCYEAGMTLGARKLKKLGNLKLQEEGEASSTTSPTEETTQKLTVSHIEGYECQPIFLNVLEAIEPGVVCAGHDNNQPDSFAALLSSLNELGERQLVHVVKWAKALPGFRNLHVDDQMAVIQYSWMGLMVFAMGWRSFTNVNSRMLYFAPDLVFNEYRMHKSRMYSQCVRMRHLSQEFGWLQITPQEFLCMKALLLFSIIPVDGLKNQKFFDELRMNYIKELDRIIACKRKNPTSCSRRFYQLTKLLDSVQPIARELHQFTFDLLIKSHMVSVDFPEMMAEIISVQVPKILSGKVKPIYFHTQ
# Outline: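 AR-bla HEK293 cells, 2,000/well; 4 h preincubation 37C/5% CO2; compound (DMSO) 16 h at 37C; LiveBLAzer B/G FRET substrate 2 h RT; fluorescence intensity read-out.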
# [10] = system: thyroid hormone receptor (rat, GH3 cells); assay: qHTS assay to identify small molecule agonists of the thyroid receptor (TR) signaling pathway (AID 743066; calls by dose curve; also: % is scaled to controls: 0 for no effect and ±100 for the full control effect); conditions: GH3.TRE-Luc cells, TR agonist luciferase, 24 h; activation: at 83.9 µM (top of the series) unless noted
# [11] = qHTS assay to identify small molecule antagonists of the estrogen receptor alpha (ER-alpha) signaling pathway using the BG1 cell line - cell viability counter screen (AID 743081); conditions: BG1Luc4E2 viability, CellTiter-Fluor, 22 h; activity change, negative = cytotoxicity: at 70.3 µM (top of the series) unless noted;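 also: compound given together with 17beta-estradiol as the ER stimulus; potency is read from the fitted curve at half-maximal effect; nearly all actives have a fitted effect of over 45% in size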
# Aromatase (Homo sapiens) = Aromatase (Homo sapiens) (UniProt P11511); assay: qHTS assay to identify aromatase inhibitors (AID 743083); conditions: MCF-7 aro ERE, testosterone-driven ERE luciferase, 24 h; activity, negative = inhibition: at 70.3 µM (top of the series); also: potency is read from the fitted curve at half-maximal effect; nearly all actives have a fitted effect of over 55% in size
# Chain of UniProt P11511 (P11511 whole entry, looked up): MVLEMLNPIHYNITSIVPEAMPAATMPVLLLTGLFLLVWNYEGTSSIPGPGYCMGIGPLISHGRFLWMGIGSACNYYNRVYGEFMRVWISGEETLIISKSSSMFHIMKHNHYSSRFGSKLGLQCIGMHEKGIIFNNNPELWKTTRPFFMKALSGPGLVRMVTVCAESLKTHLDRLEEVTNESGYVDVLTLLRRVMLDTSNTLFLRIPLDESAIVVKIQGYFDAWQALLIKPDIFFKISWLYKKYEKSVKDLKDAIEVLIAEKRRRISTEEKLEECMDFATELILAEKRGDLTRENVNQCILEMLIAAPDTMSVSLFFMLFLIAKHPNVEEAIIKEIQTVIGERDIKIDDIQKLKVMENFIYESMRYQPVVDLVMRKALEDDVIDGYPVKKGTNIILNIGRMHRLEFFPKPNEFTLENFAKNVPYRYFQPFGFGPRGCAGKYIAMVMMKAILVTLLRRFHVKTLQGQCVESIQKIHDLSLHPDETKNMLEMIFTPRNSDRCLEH
# Tags tell the direction and shape of the fitted curve or compound fluorescence and quenching.
compound,measurement,setting,value
Cc1cccc(N(C)C(=S)Oc2ccc3ccccc3c2)c1,Potency,[1],inactive and active: 30.6 µM
same,Potency,[2],inactive and inconclusive: 38.9 µM [cytotoxic]
same,Potency,[3],"inconclusive: 77 µM [inhibitor, single point]"
same,Potency,[4],inconclusive: 54.9 µM [inhibitor]
same,Potency,[5],inactive
same,Potency,[6],"inconclusive: 30.9 µM [falling, partial curve]"
same,Potency,[7],"inconclusive: 68.6 µM [inhibitor, partial curve, poor fit]"
same,activation,[7],inconclusive: 4.88% [phenotype inactive] [at 32.5 µM]
CC1(C)CO[C@@H](CC(=O)O)CN1,Potency,[1],inactive
same,Potency,[3],inactive
same,Potency,[4],inactive
same,Potency,[5],inactive
CC(C)(C)c1cc(CCC(=O)OCC(COC(=O)CCc2cc(C(C)(C)C)c(O)c(C(C)(C)C)c2)(COC(=O)CCc2cc(C(C)(C)C)c(O)c(C(C)(C)C)c2)COC(=O)CCc2cc(C(C)(C)C)c(O)c(C(C)(C)C)c2)cc(C(C)(C)C)c1O,Potency,[1],"inconclusive: 2.06 µM [rising, partial curve, poor fit]"
same,Potency,[8],"inconclusive: 32.7 µM [rising, partial curve, poor fit]"
same,Potency,[7],active: 4.11 µM
N=c1ccn2c(n1)O[C@H]1[C@H](O)[C@@H](CO)O[C@H]12,Potency,[1],active: 266 nM and active: 172 nM
same,Potency,[8],"inconclusive: 1.37 µM [cytotoxic, full curve]"
Cc1ccc(NC(=O)c2ccc(CN3CCN(C)CC3)cc2)cc1Nc1nccc(-c2cccnc2)n1,Potency,[1],active: 13.3 µM
same,activation,[9],inconclusive: 19.9%
same,Potency,[8],active: 21.1 µM
same,Potency,[3],active: 26.6 µM
same,activation,[10],inconclusive: -5.82% [phenotype inactive]
same,Potency,[5],inactive
same,Potency,[11],"inconclusive: 23.7 µM [cytotoxic, partial curve]"
same,Potency,Aromatase (Homo sapiens),"inconclusive: 26.6 µM [inhibitor, partial curve]"
